Laboratory results taken from PubChem BioAssay (NCI).
Several values for one entry are separate records, joined by “and”; a condition that tells them apart may be missing. Equal entries are not always repeated.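 Protocol summary: plate cells (96-well), add compound at 5 concentrations, incubate 48 h, interpolate endpoints linearly. GI50 = concentration required for 50% inhibition of growth. TGI marks complete inhibition of growth.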

Tested on: NCI-H322M lung
Test: growth of human tumour cells (NCI), 48 h

c1ccc2cc(C[n+]3ccn(Cc4ccc5ccccc5n4)c3)ccc2c1
GI50: 2.86 µM and 7.18 µM | TGI: 13.8 µM and 21.1 µM

COc1ccc(N2N=NN(C(C)C)/C2=C(/Cl)c2nnnn2-c2ccc(OC)cc2)cc1
TGI: 30 µM

CC(=O)OCC1OC(n2c(N)c(C#N)c(-c3cccc(Cl)c3)c(C#N)c2=S)C(OC(C)=O)C(OC(C)=O)C1OC(C)=O (configuration not stated)
TGI: > 100 µM

O=C1C(Br)=C(Br)C(=O)c2ccccc21
TGI: 94.6 µM and 31.4 µM

O=C(CSCC(=O)N/N=C\c1ccccc1F)N/N=C\c1ccccc1F
TGI: > 100 µM

CCC(C)c1cccc(C)c1NC(=O)C(=O)Cc1nc2ccccc2s1 (configuration not stated)
TGI: > 100 µM

CC(O)C(NC(=O)c1ccccc1)C(=O)N(Cc1ccccc1)Cc1ccccc1 (configuration not stated)
TGI: > 100 µM

CCOC(=O)C(NC(=O)CC)(Nc1ccc(S(=O)(=O)Nc2ccc(OC)nn2)cc1)C(F)(F)F (configuration not stated)
TGI: > 100 µM

COc1ccc(-c2nc(-c3ccccn3)c(-c3ccccn3)n2CC(C)C)cc1OC1CCCC1
GI50: 21.4 µM | TGI: > 165 µM

C[N+](C)(C)CC(CC(=O)[O-])C1CC1 (configuration not stated)
TGI: > 100 µM

COc1cc2c(c(OC)c1OC)-c1ccc(SC)c(=O)cc1[C@@H](NC(=O)c1ccc([N+](=O)[O-])cc1)CC2
TGI: > 100 µM

CC(C)(C)OC(=O)n1c(Cl)c(C=O)c2ccccc21
TGI: 40.6 µM

O=C1/C(=C/c2ccc(Cl)cc2)CCC1CN1CCOCC1 (configuration not stated)
TGI: 45.2 µM

COc1ccc(C2=C(Cl)c3cc(OC)c(OC)cc3C2)cc1OC
TGI: > 100 µM

Cc1cn([C@H]2C[C@H](O)[C@@H](CO)O2)c(=O)nc1N
TGI: > 100 µM

Cn1cnc(SC2=C3C(=O)C=C4S[C@H]5C[C@]42c2c(c(O)c4c6c2=[N+]3CCC=6C=N4)N5)c1CC(N)C(=O)O (some centres not stated)
TGI: 36.3 µM

Nc1ccccc1OCCCOc1ccccc1N
TGI: > 100 µM

CS(=O)(=O)OCC1CCCCCCCCCCC12SCCCS2 (configuration not stated)
TGI: > 100 µM

Cc1cc2oc3c(ccc(=O)n3C)c(=O)c2c(C)c1Cl
TGI: > 100 µM

COc1cnc2c(c1)C(=O)c1c-2n(CCCNCCN2CCOCC2)c(=O)c2cc([N+](=O)[O-])ccc12
GI50: 0.279 µM | TGI: 1.71 µM

CN(C)c1ccc2cc3ccc(N(C)C)cc3nc2c1
TGI: 14.2 µM

CC(C)=CCC[C@@H](C)C1=CC(=O)C(C)=C(O)C1=O
TGI: 25.7 µM

CC1C(C#N)(C#N)C(C#N)=C(N)C1(C)[N+](=O)[O-] (configuration not stated)
TGI: > 100 µM

CC(=O)OCC1OC(SC2=NC(=O)/C(=C/c3ccccc3)S2)C(OC(C)=O)C(OC(C)=O)C1OC(C)=O (configuration not stated)
TGI: > 100 µM

Oc1ccc2ccccc2c1N=Nc1ccc(Cl)cc1
TGI: > 100 µM

CCOC(OCC)C(CC)[Se]c1ccccc1 (configuration not stated)
TGI: > 100 µM

COc1ccc(C2C(C#N)=C(S)N(C3OC(CO)C(O)C(O)C3O)C(C)=C2C(C)=O)cc1 (configuration not stated)
TGI: > 100 µM

O=C(Nc1ccc(Oc2ccc(NC(=O)Nc3ccc([N+](=O)[O-])cc3)cc2)cc1)Nc1ccc([N+](=O)[O-])cc1
GI50: 2.44 µM | TGI: > 100 µM

COc1cc(C(O)C(=O)c2cnc3cc([N+](=O)[O-])ccc3n2)ccc1O (configuration not stated)
TGI: > 100 µM

CC(C)=CC(=O)N[C@@H]1CC2CCC3C(CC[C@@]4(C)C3CC[C@@H]4C(C)N(C)C)[C@@]2(C)C[C@@H]1O (some centres not stated)
GI50: 4.95 µM | TGI: 41.6 µM

O=c1[nH]c(=O)n(COCc2ccccc2)c2ccccc12
TGI: > 100 µM

O=C1O[C@H]2C3C4CCC(C4[C@@H]2I)[C@H]13 (some centres not stated)
TGI: > 100 µM

COc1cc(OC)c(F)c(COc2cnc(Nc3cnn(CCO)c3)nc2)c1F
GI50: 1.97 µM | TGI: > 100 µM

COc1ccc(CCCN2c3ccccc3Sc3ccccc32)cc1
TGI: > 100 µM

CC(=O)N1C(Nc2cccc3nc(C)ccc23)CCN1c1ccccc1 (configuration not stated)
TGI: > 10 µM

C[N+](C)(C)CC(=O)N/N=C(/Cc1nc2ccc([N+](=O)[O-])cc2[nH]c1=O)C(=O)Nc1cc(C(F)(F)F)ccc1Cl
TGI: > 100 µM

CCN(CC)c1ccc2cc(C(N)=O)c(=Nc3ccc(F)cc3)oc2c1
TGI: > 100 µM

Cc1ccc2nc3c(n2c1)C(=O)C(=O)c1ccccc1-3
GI50: 0.693 µM | TGI: 1.72 µM

OCCn1cc(-c2cnc3nnn(Cc4ccc5ncccc5c4)c3n2)cn1
GI50: > 100 µM | TGI: > 100 µM

O=C1/C(=C/c2ccc(Cl)c(Cl)c2)CNC/C1=C\c1ccc(Cl)c(Cl)c1
TGI: 47 µM

CCSc1ccc([C@@H]2[C@@H](N)C(=O)N2c2cc(OC)c(OC)c(OC)c2)cc1
GI50: 0.665 µM | TGI: > 100 µM

O=C(NN1C(=O)C(Cl)C1c1ccccc1Cl)c1ccccc1O (configuration not stated)
TGI: > 100 µM

O=C1CCSC(=S)N1c1ccc(Br)c(Cl)c1
TGI: 83.4 µM

CC(C)C1=C(Cc2ccccc2)C(=O)O/C1=C\c1ccc(O)c(Cl)c1
TGI: 30.9 µM

O=C(O)c1cn(C2CC2)c2cc(N3CCNCC3)c(F)cc2c1=O
GI50: > 100 µM | TGI: > 100 µM

CCOC(=O)C(=O)Nc1ccccc1OCC
TGI: > 100 µM

COc1cc(/C(=C2/O[C@@H]([C@H]3COC(C)(C)O3)[C@H]3OC(C)(C)O[C@@H]23)c2ccc3c(c2)OCO3)cc(OC)c1OC
GI50: > 25 µM | TGI: > 25 µM

C[N+]1([O-])[C@H]2CC(OC(=O)[C@H](CO)c3ccccc3)C[C@H]1[C@H]1O[C@H]12 (some centres not stated)
TGI: > 100 µM

CC(=O)c1ccc2c3c1O[C@H]1c4[nH]c5ccccc5c4C[C@@]4(O)[C@@H](C2)N(CC2CC2)CC[C@]314
TGI: 17 µM

CCOc1ccc(NCC2CC/C(=C\c3ccc(Cl)cc3)C2=O)cc1 (configuration not stated)
TGI: > 100 µM

C=C1CCC2C(C)(CO)C(O)CCC2(C)C1C/C=C1/CCOC1=O (configuration not stated)
TGI: > 100 µM

CCCCOc1ccc2c(c1)CC[C@@H]1[C@@H]2CC[C@]2(C)C(=O)N(CCCC)C(=O)C[C@@H]12
TGI: > 100 µM

CCCCCCCCNC(C)C(O)c1ccc(SC(C)C)cc1 (configuration not stated)
GI50: 11.7 µM | TGI: 24.7 µM

COC1=CC(=O)c2nc3ccccc3c3ccnc1c23
TGI: 16.1 µM

Cc1c2oc3c(C)cc(F)c(C(=O)NC4C(=O)NC(C(C)C)C(=O)N5CCCC5C(=O)N(C)CC(=O)N(C)C(C(C)C)C(=O)OC4C)c3nc-2c(C(=O)NC2C(=O)NC(C(C)C)C(=O)N3CCCC3C(=O)N(C)CC(=O)N(C)C(C(C)C)C(=O)OC2C)c(N)c1=O (configuration not stated)
GI50: 0.119 µM

CN(C)CC1CCCCCC(Br)C1=O (configuration not stated)
TGI: > 100 µM

COc1cc(C(=O)O/N=C(\N)Cc2cccc3ccccc23)cc(OC)c1OC
GI50: 15.7 µM | TGI: 33.9 µM

Cc1ccc(-c2cc(-c3ccc(C)cc3)nc(N3CCN(CCNc4ccnc5cc(Cl)ccc45)CC3)n2)cc1
GI50: 3.36 µM | TGI: 15 µM

O=C1CC(C(COCc2ccccc2)OCc2ccccc2)CC(=O)N1 (configuration not stated)
TGI: > 100 µM

O=NN1C(c2ccccc2)CCCC1c1ccccc1 (configuration not stated)
TGI: > 100 µM

O=C(c1nn(-c2ccc(Cl)cc2)cc1O)n1nc(C(F)(F)F)cc1-c1ccccc1
GI50: 0.816 µM | TGI: > 100 µM

O=Cc1c(Br)[nH]c2ccccc12
TGI: > 100 µM

c1ccc2c(c1)Sc1ccccc1N2C1CN2CCC1CC2 (configuration not stated)
TGI: 32.5 µM

O=C(c1ccccc1)c1c(C(F)(F)F)n([O-])c2cc(F)c(F)cc2[n+]1=O
GI50: 5.47 µM

OCC(O)COc1c(Cl)cc(Cl)cc1Cl (configuration not stated)
TGI: > 100 µM

Cc1ccc(N=C2SC(=NN(C)C)SC2=Nc2ccc(C)cc2)cc1
TGI: > 100 µM

OC(C1CCCCCCCCCC1)C(O)C1CCCCCCCCCC1 (configuration not stated)
TGI: > 100 µM

COc1ccc(N2C(=O)C3c4[nH]c5ccccc5c4C4c5ccccc5CC4C3C2=O)cc1 (configuration not stated)
TGI: > 100 µM

NC(=O)c1sc(-n2cnc3ccc(C(F)(F)F)cc32)cc1OCc1ccccc1Br
GI50: 3.87 µM | TGI: > 25 µM

CN1C=COC1N=C1CCCCC1 (configuration not stated)
TGI: > 100 µM

COc1cc([C@@H]2c3cc4c(cc3[C@@H](c3c(O)cc(O)c5c3O[C@H](c3ccc(O)c(O)c3)[C@H](OC(=O)c3cc(O)c(O)c(O)c3)C5)[C@H]3COC(=O)[C@H]23)OCO4)cc(OC)c1O
TGI: > 100 µM

O=C(N[C@H]1CCC[C@H]1C(=O)Nc1ccc(C(F)(F)F)cc1)OCc1ccccc1
TGI: > 100 µM

O=C(c1ccccc1O)c1cc(-c2ncc3c(=O)c4ccccc4oc3n2)c(-c2ccccc2O)[nH]c1=O
TGI: > 100 µM

Cc1cc(NCc2cc(Nc3ccnc4cc(Cl)ccc34)ccc2F)nc(N2CCSCC2)n1
GI50: 2.16 µM | TGI: 7.75 µM

CNc1ccc([N+](=O)[O-])c2c(NCCCN(C)C)ccnc12
TGI: > 100 µM

COc1cc2[nH]c(=O)c3cc(C)cc4c(Cl)nc(c1OC)c2c43
TGI: > 100 µM

O=S1c2ccccc2NC(c2ccc3ccccc3c2)CC1c1ccccc1 (configuration not stated)
TGI: > 100 µM

N#Cc1ccc2[nH]c3c(c2c1)CC(=O)Nc1ccccc1-3
TGI: > 100 µM

C[C@]12CC[C@H](O)CC1=CC[C@@H]1[C@@H]2CC[C@]2(C)C(=O)/C(=C/c3ccc([N+](=O)[O-])cc3)C[C@@H]12
TGI: 41.3 µM

COc1ccc(OC(C)C(=O)O)c2c1CCCC2=O (configuration not stated)
TGI: > 100 µM

O=C(Cc1csc2nc(-c3ccc(Br)cc3)cn12)N/N=C/c1ccc(Cl)cc1Cl
GI50: 24.3 µM | TGI: 69.9 µM

Nc1nc(-c2ccc(Cl)cc2)cc(-c2ccc(Cl)cc2)c1-c1nc2ccccc2o1
GI50: 15.6 µM | TGI: 31 µM

O=C1c2cccnc2-c2nccc3c2c1nc1ccc(Br)cc13
TGI: 0.137 µM

Cn1nc2ccc3nccc(NCCNCCO)c3c2n1
TGI: > 100 µM

CCCCCCCCCCCC1=NC(C)(C)CN1CC(C)O (configuration not stated)
GI50: 9.98 µM | TGI: 21.5 µM

CCCCCCCCCCC[C@@H](C[C@H]1OC(=O)[C@H]1CCCCCC)OC(=O)[C@@H](CC(C)C)NC=O
GI50: 56.3 µM | TGI: > 100 µM

COc1ccc([C@H]2c3cc4c(cc3OC(O)(CO)[C@H]2C(=O)O)OCO4)c(OC)c1 (some centres not stated) (tested in a mixture with another compound)
TGI: > 100 µM

CCOc1cc2c(=O)oc3c(OC)ccc4ccc(c1OC)c2c43
TGI: > 100 µM

O=C1CC(c2ccsc2)c2snc(-c3ccc(Cl)cc3)c2N1 (configuration not stated)
GI50: 5.9 µM | TGI: > 100 µM

C=C(C)[C@@H]1CC[C@]2(C(=O)O)CC[C@]3(C)[C@H](CC[C@@H]4[C@@]5(C)C/C(=C/c6cccc(I)c6)C(=O)C(C)(C)[C@@H]5CC[C@]43C)[C@@H]12
GI50: 2.44 µM | TGI: 9.1 µM

COc1ccc(-c2nc(-c3cnccn3)n(Cc3ccccc3)n2)cc1
TGI: > 100 µM

COc1ccc2c(c1)C(=O)c1c-2c(N2CCN(C(=O)CNCCN(C)C)CC2)nc2ccccc12
GI50: 3.47 µM | TGI: 14.9 µM

CN1C(=O)CCC1c1ccc2c(c1)oc(=O)n2C (configuration not stated)
TGI: > 100 µM

Cc1cn([C@@H]2C[C@H](CO)[C@@H]2O)c(=O)[nH]c1=O
TGI: > 100 µM

O=C(Oc1ccc2c(-c3ccccc3)c(C(=O)Nc3ccc(Cl)cc3)c(=O)oc2c1)c1ccccc1
TGI: > 100 µM

CC(C)C[CH2][Ge]([CH2]CC(C)C)([CH2]CC(C)C)[CH2]CC(C)C
GI50: > 100 µM | TGI: > 100 µM

COc1cc2cnc(-c3ccccc3)cc2cc1OC
TGI: 80.3 µM
